The campaign covered roughly 410,000 compounds. About 6,400 (1.6%) were called active. The inconclusive results got no clear call from the source; some entries with a clear call stand among them for comparison. The call rests on the fitted dose curve; in most records, active means well fitted inhibition curve with a large enough effect; inconclusive means small, poorly fitted or top-dose-only effect; inactive means no such curve, though single readings can be large or run the other way. No potency is given beside an inconclusive call; the fits are too rough.
The compounds below were run against Glucagon-like peptide 1 receptor (Homo sapiens) (UniProt P43220) (assay: qHTS of GLP-1 Receptor Inverse Agonists (Inhibition Mode)). Details: HEK293 GLP-1R CRE-luciferase, luminescence, 24 h; Potency: GLP-1R form is constitutively active unless noted; activity change, negative = inhibition: at 38.3 µM (top of the series) unless noted.
Method in brief: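 Luminescence readout: a drop in cAMP-driven luciferase signal flags inverse agonism at a constitutively active GLP-1R stably expressed in HEK293. Compound exposure lasted 24 hr at 37 deg C, 5% CO2.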
Further: nearly all actives have a fitted effect of over 55% in size.
On the % scale 0 is the no-effect control and ±100 the full control effect; potency means the concentration at half of the fitted maximal effect; tags describe the fitted curve by direction and shape.

Sequence of UniProt P43220 (P43220 whole entry, looked up): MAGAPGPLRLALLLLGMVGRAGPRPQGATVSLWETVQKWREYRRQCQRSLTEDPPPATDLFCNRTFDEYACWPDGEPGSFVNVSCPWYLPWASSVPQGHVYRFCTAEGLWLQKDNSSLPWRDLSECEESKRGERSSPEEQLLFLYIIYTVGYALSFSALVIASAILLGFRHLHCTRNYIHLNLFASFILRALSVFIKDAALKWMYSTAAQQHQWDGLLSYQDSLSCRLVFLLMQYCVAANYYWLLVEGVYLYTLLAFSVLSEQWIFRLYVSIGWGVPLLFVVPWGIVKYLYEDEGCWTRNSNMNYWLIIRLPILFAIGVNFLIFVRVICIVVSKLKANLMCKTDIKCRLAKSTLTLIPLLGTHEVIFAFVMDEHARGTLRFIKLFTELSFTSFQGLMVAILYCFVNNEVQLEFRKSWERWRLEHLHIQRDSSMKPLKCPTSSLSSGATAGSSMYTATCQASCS

| Compound | Potency | activity change, negative = inhibition |
| --- | --- | --- |
| O=c1oc2ccccc2c(O)c1[C@H]1c2ccc(O)cc2Oc2c1c(=O)oc1ccccc21 | inconclusive [inhibitor, single point] | – |
| CC(Sc1ncnc2sccc12)C(=O)Nc1ccc(S(=O)(=O)N2CCOCC2)cc1 (centres undefined) | – | inactive: 77.7% [at 38.3 µM, GLP-1R form is constitutively active] |
| Cc1nc2ccccc2c(=O)n1/N=C/c1cc(Br)cc(Br)c1O | inconclusive [inhibitor, partial curve, poor fit] | – |
| O=C(CNC(=O)c1cccc(S(=O)(=O)N2CCc3ccccc32)c1)Nc1ccccc1Br | inconclusive [inhibitor, partial curve, poor fit] | – |
| Cc1ccc(/C=C2\C(=O)NC(=S)N(c3ccccc3F)C2=O)s1 | inconclusive [inhibitor, partial curve, poor fit] | – |
| COC(=O)c1cn(C(=O)c2cccc3ccccc23)c2ccccc12 | inconclusive [inhibitor, partial curve, poor fit] | – |
| C[CH2][Hg][S]c1ccccc1C(=O)O | inconclusive [inhibitor, partial curve, poor fit] | – |
| O=C(Cc1cccs1)N1Cc2ccccc2-n2nncc2C1 | – | inactive: -10.6% |
| COc1ccc(CN2CCN(Cc3ccccc3F)CC2)cc1 | inconclusive [inhibitor, partial curve, poor fit] | – |
| Cc1ccc(S(=O)(=O)Nc2cc(C(=O)N3CCC4(CC3)OCCO4)ccc2N2CCCCC2)cc1 | inconclusive [inhibitor, single point] | – |
| Cc1nc2ccccc2c(=O)n1-c1ccc(Cl)c(Cl)c1 | inconclusive [inhibitor, single point] | – |
| c1ccc(Nc2cccc3ccccc23)cc1 | inconclusive [inhibitor, partial curve, poor fit] | – |
| CC(C)OP(=O)(OC(C)C)C(NCc1ccccc1)c1ccccc1 (centres undefined) | inconclusive [inhibitor, single point] | – |
| Cc1cccc(OC(C)C(=O)NCC2(N(C)C)CCCCC2)c1C (centres undefined) | inconclusive [inhibitor, single point] | – |
| O=C(c1cn(Cc2ccccc2)c2ccccc12)C1CC1 | inconclusive [inhibitor, single point] | – |
| C=CCCC[C@@H]1OC(=O)CNC(=O)C([C@@H](C)CC)NC(=O)[C@@H]2CCCN2C(=O)C([C@@H](C)CC)OC(=O)[C@H](Cc2ccccc2)N(C)C(=O)[C@H](C(C)C)NC(=O)C1(C)C (some centres undefined) | inconclusive [inhibitor, partial curve] | – |
| Cc1ccc(NP(=O)(Oc2ccccc2F)Oc2ccccc2F)cc1 | inconclusive [inhibitor, full curve, poor fit] | – |
| Cc1ccc(NC(=O)C2CCN(C(=O)c3cnn(-c4ccccc4)c3-n3cccc3)CC2)cc1Cl | inconclusive [inhibitor, partial curve, poor fit] | – |
| COc1ccccc1N1CCN(Cc2ccc3c(c2)OCO3)CC1 | inconclusive [inhibitor, single point] | – |
| O=C(CSc1nc(-c2ccc(Cl)cc2)[nH]c(=O)n1)Nc1cccc(Cl)c1 | inconclusive [inhibitor, partial curve, poor fit] | – |

| Compound | Potency | activity change, negative = inhibition |
| --- | --- | --- |
| O=C(c1ccc(C(F)(F)F)cc1)C1CCCN(Cc2ccc(CO)o2)C1 (centres undefined) | inconclusive [inhibitor, single point] | – |
| CCCCCCCC(=O)NC(Oc1ccccc1[N+](=O)[O-])C(Cl)(Cl)Cl (centres undefined) | inconclusive [inhibitor, partial curve, poor fit] | – |
| COC(=O)C1=C(c2ccc(F)cc2F)C[C@@H]2CC[C@H]1N2C(=O)NCc1ccc(C(F)(F)F)cc1 | inconclusive [inhibitor, single point] | – |
| CCOP(=O)(OCC)c1ccc(O)cc1 | inconclusive [inhibitor, partial curve, poor fit] | – |
| O=C(NCc1ccc(Cl)cc1)C1CCN(C(=O)c2cnn(-c3ccccc3)c2-n2cccc2)CC1 | inconclusive [inhibitor, single point] | – |
| Cc1nc2ccc(N3CCN(C)CC3)cc2nc1C | – | inactive: 14.2% |
| CCN1CCN(CC(=O)c2c(C)n(Cc3ccccc3)c3ccc(OC)cc23)CC1 | inconclusive [inhibitor, single point] | – |
| COc1ccccc1-n1c(-c2ccccc2)nc2ccccc2c1=O | inconclusive [inhibitor, partial curve, poor fit] | – |
| Cc1ccc(C)c(S(=O)(=O)Nc2ccc3c(c2)CCCN3C(=O)c2cccs2)c1 | inconclusive [inhibitor, partial curve, poor fit] | – |
| Cc1cc(C)n(CCOC(=O)C2C(C=C(Cl)Cl)C2(C)C)n1 (centres undefined) | inconclusive [inhibitor, partial curve, poor fit] | – |
| COC(=O)C1=C(c2ccc(F)cc2OCc2ccccc2)C[C@@H]2CC[C@H]1N2C(=O)N1CCC(O)(c2ccc(Cl)cc2)CC1 | inconclusive [inhibitor, partial curve, poor fit] | – |
| COC(=O)C1=C(c2cc3ccccc3s2)C[C@@H]2CC[C@H]1N2C(=O)NCc1ccccc1 | inconclusive [inhibitor, partial curve, poor fit] | – |
| Cc1ccccc1CN1Cc2cnnn2-c2ccccc2C1C#N (centres undefined) | inconclusive [inhibitor, partial curve, poor fit] | – |
| CCCc1nc(SC)ncc1C(=O)Nc1ccc(Cl)cc1C(=O)c1ccccc1 | inconclusive [inhibitor, single point] | – |
| O=[N+]([O-])c1ccc(N2CCNCC2)cc1N1CCCCCC1 | inconclusive [inhibitor, partial curve, poor fit] | – |
| O=C1NC(=O)C2(CCCc3ccc(N(CCCl)CCCl)cc32)N1 (centres undefined) | inconclusive [inhibitor, full curve, poor fit] | – |
| O=C(Nc1nc2ccccc2s1)c1cccn(Cc2ccccc2)c1=O | – | inactive: 14.1% |
| COC(=O)C1=C(c2ccc(F)cc2OCc2ccccc2)C[C@@H]2CC[C@H]1N2C(=O)NCc1ccc2[nH]ccc2c1 | inconclusive [inhibitor, single point] | – |
| CC12CC[C@H]3[C@@H](CCC4(O)C[C@H](O)CCC34/C=N/NC(=O)c3ccccc3O)C1(O)CCC2C1=CC(=O)OC1 (some centres undefined) | inconclusive [inhibitor, single point] | – |
| Cc1ccc(NP(=O)(Nc2ccc(C)cc2)Oc2ccccc2)cc1 | inconclusive [inhibitor, partial curve, poor fit] | – |

| Compound | Potency | activity change, negative = inhibition |
| --- | --- | --- |
| CCOc1cc(/C=C2/NC(=O)N(CC(=O)Nc3cccc(C)c3)C2=O)ccc1O | inconclusive [inhibitor, full curve, poor fit] | – |
| COC(=O)C1=C(c2ccc3ccccc3c2)C[C@@H]2CC[C@H]1N2C(=O)N1CCCC1 | inconclusive [inhibitor, full curve, poor fit] | – |
| COc1c(C)cc(C(=O)C2CCCN(Cc3ccccn3)C2)cc1C (centres undefined) | active: 2.82 µM | – |
| Cc1c(C=O)c2ccccc2n1Cc1ccccc1F | inconclusive [inhibitor, full curve] | – |
| COC(=O)C1=C(c2ccc(Cl)c(C(F)(F)F)c2)C[C@@H]2CC[C@H]1N2C(=O)N1CCC(C)CC1 | – | inactive: 10.9% |
| CCN(Cc1ccccc1)S(=O)(=O)c1ccc2c(c1)CCCN2C(C)=O | inconclusive [inhibitor, partial curve] | – |
| CCOC(=O)[C@]12Cc3cc(OC)ccc3[C@H]1N(Cc1ccccc1)C(=O)c1cc(OC)ccc12 | inconclusive [inhibitor, single point] | – |
| COc1cc(OC)cc(-c2sc3ccc(OC)cc3c2-c2ccc(OCCN3CCOCC3)cc2)c1 | inconclusive [inhibitor, single point] | – |
| CCOC(=O)[C@]12Cc3cc(OC)ccc3[C@H]1N(CC(=O)OC)C(=O)c1cc(OC)ccc12 | inconclusive [inhibitor, single point] | – |
| Cc1ccc(C(C)C)c(OCC#CCN2CCCC2)c1 | inconclusive [inhibitor, partial curve, poor fit] | – |
| COc1ccccc1OCC(=O)N1CCN(Cc2ccc3c(c2)OCO3)CC1 | – | inactive: -4.8% [at 7.66 µM, GLP-1R form is constitutively active] |
| Oc1c(Br)cc(Br)cc1CN1CCN(Cc2ccccc2)CC1 | active: 10 µM [setting not given] | – |
| Cc1ccc(-n2c(=S)[nH]c3ccccc3c2=O)cc1F | – | inactive: -23.5% |
| c1ccc2c(c1)OCC(C1=NCCN1)O2 (centres undefined) | inconclusive [inhibitor, single point] | – |
| CCc1ccc(NP(=O)(Oc2ccccc2F)Oc2ccccc2F)cc1 | inconclusive [inhibitor, partial curve, poor fit] | – |
| CCOc1ccc(CN(CCc2ccc3c(c2)OCO3)Cc2cccc(Br)c2)cc1 | inconclusive [inhibitor, single point] | – |
| NS(=O)(=O)c1ccc(N=Nc2c(O)[nH]c(=S)[nH]c2=O)cc1 | – | inactive: 11.4% |
| CC1CCC(C(C)C)C(OC(=O)COC(=O)c2ccccc2N)C1 (centres undefined) | inconclusive [inhibitor, single point] | – |
| CN(C)c1ccc(-[n+]2c(-c3ccccc3)cc(-c3ccccc3)cc2-c2ccccc2)cc1 | inconclusive [inhibitor, full curve, poor fit] | – |

From PubChem BioAssay AID624417 (National Center for Advancing Translational Sciences (NCATS), 2012)
